Consider 20 molecules from PMC9911399, “Two distinct binding modes provide the RNA-binding protein RbFox with extraordinary sequence specificity”.

Substitutions are numbered along the chain they refer to; changes in the protein carry UniProt numbers. This is one part of the list.

The labels stand for the following.
T1: RBFOX1 RRM RbFoxmut (Fox-RRM*) (Homo sapiens, UniProt Q9NWB1 109-208, R118D;E147R;N151S;E152T)
T1 sequence: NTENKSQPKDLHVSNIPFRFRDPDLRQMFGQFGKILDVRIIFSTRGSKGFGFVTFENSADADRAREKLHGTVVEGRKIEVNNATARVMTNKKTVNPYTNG

B1: AGCGGAA (DNA:RNA)
RNA: GGGAGACCGGAAUUCAGAUUGUCCAGCGGAAUUAAAUCCCGUCGUAGCCACCA
DNA 1: CAATCTGAATTCCGGTCTCCC
DNA 2: TGGTGGCTACGACGGGATT
B2: GAGCCUG (DNA:RNA)
RNA: GGGAGACCGGAAUUCAGAUUGUCCGAGCCUGUUAAAUCCCGUCGUAGCCACCA
DNA 1: CAATCTGAATTCCGGTCTCCC
DNA 2: TGGTGGCTACGACGGGATT
B3: CCGUCAG (DNA:RNA)
RNA: B2 RNA with G25C, A26C, C28U, U30A
DNA 1: CAATCTGAATTCCGGTCTCCC
DNA 2: TGGTGGCTACGACGGGATT
B4: AAAUGUA (DNA:RNA)
RNA: B1 RNA with G26A, C27A, G28U, A30U
DNA 1: CAATCTGAATTCCGGTCTCCC
DNA 2: TGGTGGCTACGACGGGATT
B5: CCCUCUG (DNA:RNA)
RNA: B2 RNA with G25C, A26C, G27C, C28U
DNA 1: CAATCTGAATTCCGGTCTCCC
DNA 2: TGGTGGCTACGACGGGATT
B6: CUCUCCG (DNA:RNA)
RNA: B2 RNA with G25C, A26U, G27C, C28U, U30C
DNA 1: CAATCTGAATTCCGGTCTCCC
DNA 2: TGGTGGCTACGACGGGATT
B7: AAACACA (DNA:RNA)
RNA: B1 RNA with G26A, C27A, G28C, G29A, A30C
DNA 1: CAATCTGAATTCCGGTCTCCC
DNA 2: TGGTGGCTACGACGGGATT
B8: CCUGGGA (DNA:RNA)
RNA: B1 RNA with A25C, G26C, C27U, A30G
DNA 1: CAATCTGAATTCCGGTCTCCC
DNA 2: TGGTGGCTACGACGGGATT
B9: AUAUAUG (DNA:RNA)
RNA: B2 RNA with G25A, A26U, G27A, C28U, C29A
DNA 1: CAATCTGAATTCCGGTCTCCC
DNA 2: TGGTGGCTACGACGGGATT
B10: CGAUACC (DNA:RNA)
RNA: B1 RNA with A25C, C27A, G28U, G29A, A30C, A31C
DNA 1: CAATCTGAATTCCGGTCTCCC
DNA 2: TGGTGGCTACGACGGGATT
B11: CGCACAA (DNA:RNA)
RNA: B1 RNA with A25C, G28A, G29C
DNA 1: CAATCTGAATTCCGGTCTCCC
DNA 2: TGGTGGCTACGACGGGATT
B12: ACAGUUC (DNA:RNA)
RNA: B1 RNA with G26C, C27A, G29U, A30U, A31C
DNA 1: CAATCTGAATTCCGGTCTCCC
DNA 2: TGGTGGCTACGACGGGATT
B13: GUUGUGA (DNA:RNA)
RNA: B1 RNA with A25G, G26U, C27U, G29U, A30G
DNA 1: CAATCTGAATTCCGGTCTCCC
DNA 2: TGGTGGCTACGACGGGATT
B14: UCCCCAC (DNA:RNA)
RNA: B1 RNA with A25U, G26C, G28C, G29C, A31C
DNA 1: CAATCTGAATTCCGGTCTCCC
DNA 2: TGGTGGCTACGACGGGATT
B15: GCCCUCC (DNA:RNA)
RNA: B2 RNA with A26C, G27C, C29U, U30C, G31C
DNA 1: CAATCTGAATTCCGGTCTCCC
DNA 2: TGGTGGCTACGACGGGATT
B16: GGGCAUU (DNA:RNA)
RNA: B2 RNA with A26G, C29A, G31U
DNA 1: CAATCTGAATTCCGGTCTCCC
DNA 2: TGGTGGCTACGACGGGATT
B17: GACCACG (DNA:RNA)
RNA: B2 RNA with G27C, C29A, U30C
DNA 1: CAATCTGAATTCCGGTCTCCC
DNA 2: TGGTGGCTACGACGGGATT
B18: AACUGGG (DNA:RNA)
RNA: B1 RNA with G26A, G28U, A30G, A31G
DNA 1: CAATCTGAATTCCGGTCTCCC
DNA 2: TGGTGGCTACGACGGGATT
B19: GAAACUC (DNA:RNA)
RNA: B2 RNA with G27A, C28A, G31C
DNA 1: CAATCTGAATTCCGGTCTCCC
DNA 2: TGGTGGCTACGACGGGATT
B20: ACCUCUG (DNA:RNA)
RNA: B2 RNA with G25A, A26C, G27C, C28U
DNA 1: CAATCTGAATTCCGGTCTCCC
DNA 2: TGGTGGCTACGACGGGATT

The assay deals with T1, RBFOX1 RRM RbFoxmut (Fox-RRM*). The experiment in a line: EMSA; HiTS-Eq, 1 nM pool, 10 min; buffer printed only for the single-RNA assays: 10 mM Tris pH 7.5, 150 mM NaCl, 3.4 mM EDTA, 0.001% NP-40, 30 C. The settings on record: tags: His6 N-terminal (pET28a); label: 5' 32P. The method, boiled down: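 Purified RbFox RRM (wild type or mutant) was equilibrated for 10 min in 50 µL with 1 nM of a 5′-radiolabelled pool of RNA with 7 randomized nucleotides, its flanks annealed to DNA oligonucleotides, across increasing protein concentrations. Free RNA was separated by 8% native PAGE, excised, reverse-transcribed, PCR-barcoded and sequenced on an Illumina HiSeq 2500. Relative association constants came from read-count changes of each variant against the control reaction, normalised to the cognate motif.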
Turning to B1, the binding signal is 0.124 KA relative to UGCAUGU.
As to B2, the binding signal is 0.138 KA relative to UGCAUGU.
To B3 belongs 0.0849 KA relative to UGCAUGU.
To B4 belongs 0.166 KA relative to UGCAUGU; to B5, 0.101 KA relative to UGCAUGU.
Then B6, with 0.0825 KA relative to UGCAUGU.
In the case of B7, the binding signal was 0.106 KA relative to UGCAUGU.
For B8, the binding signal is 0.0578 KA relative to UGCAUGU.
For B9, the binding signal was 0.146 KA relative to UGCAUGU.
As for B10, the binding signal is 0.0925 KA relative to UGCAUGU.
Regarding B11, the binding signal was 0.0611 KA relative to UGCAUGU.
As to B12, the binding signal was 0.0875 KA relative to UGCAUGU.
Then B13, with 0.124 KA relative to UGCAUGU; and B14, with 0.118 KA relative to UGCAUGU.
Then B15, with 0.0425 KA relative to UGCAUGU.
Regarding B16, the binding signal was 0.0737 KA relative to UGCAUGU.
To B17 belongs 0.105 KA relative to UGCAUGU.
Turning to B18, the binding signal was 0.0673 KA relative to UGCAUGU.
Regarding B19, the binding signal was 0.0464 KA relative to UGCAUGU.
Turning to B20, the binding signal is 0.0699 KA relative to UGCAUGU.
